Laboratory results from patent US20060257397A1 (CRUCELL HOLLAND B V, published 2006).

B1: scFv phage antibody SC02-113 (scFv)
scFv: QVQLQESGAGLLKPSETLSLTCAVYGGSFSGYYWSWIRQPPGKGLEWIGYIYYSGSTNYNPSLKSRVTISVDTSKNQFSLKLSSVTAADTAVYYCAKAPYMMYFDSWGQGTLVTVSSGGGGSGGGGSGGGGSEIELTQSPSSLSASVGDRVTIT[about 80 residues omitted]FGQGTKVEIKR
B2: scFv phage antibody SC02-114 (scFv)
scFv: EVQLVESGGGLVQPGGSLRLSCAASGFTFSSYSMNWVRQAPGKGLEWVSYISSSSSTIYYADSVKGRFTISRDNAKNSLYLQMNSLRDEDTAVYYCAKETWWQSFDYWGQGTLVTVSSGGGGSGGGGSGGGGSEIELTQSPSSLSASVGDRVTIT[about 80 residues omitted]FGQGTKVEIKR
B3: scFv phage antibody SC02-117 (scFv)
scFv: EVQLVESGGGLVHPGGSLRLSCAGSGFTFSSYAMHWVRQAPGKGLEWVSAIGTGGGTYYADSVKGRFTISRDNAKNSLYLQMNSLRAEDTAVYYCARSTPWFSFDYWGQGTLVTVSSGGGGSGGGGSGGGGSEIELTQSPSSLSASVGDRVTIT[about 80 residues omitted]FGQGTKVEIKR
B4: scFv phage antibody SC02-118 (scFv)
scFv: EVQLVESGGGQVHPGGSLRLSCAGSGFTFSSYAMHWVRQAPGKGLEWVSAISTGGGTYYADSVKGRFTISRDNAKNSLYLQMNSLRAEDTAVYYCARSAWWLSFDSWGQGTLVTVSSGGGGSGGGGSGGGGSEIELTQSPSSLSASVGDRVTIT[about 80 residues omitted]FGQGTKVEIKR
B5: scFv phage antibody SC02-116 (scFv)
scFv: [about 100 residues omitted]DALWLAFDYWGQGTLVTVSSGGGGSGGGGSGGGGSEIELTQSPSSLSASVGDRVTITCRASQSISSYLNWYQQKPGKAPKLLIYAASSLQSGVPSRFSGSGSGTDFTLTISSLQPEDFATYYCAQRSYPPPKFGQGTKVDIKR

Each binder was assayed against T1, human CD1a (human, UniProt P06126) (assay: flow cytometry, phage antibody on C1R cells transfected with CD1a).
T1 construct: whole, on cells; also called C1R-CD1a; CR1-CD1a
T1 sequence (P06126 17-327): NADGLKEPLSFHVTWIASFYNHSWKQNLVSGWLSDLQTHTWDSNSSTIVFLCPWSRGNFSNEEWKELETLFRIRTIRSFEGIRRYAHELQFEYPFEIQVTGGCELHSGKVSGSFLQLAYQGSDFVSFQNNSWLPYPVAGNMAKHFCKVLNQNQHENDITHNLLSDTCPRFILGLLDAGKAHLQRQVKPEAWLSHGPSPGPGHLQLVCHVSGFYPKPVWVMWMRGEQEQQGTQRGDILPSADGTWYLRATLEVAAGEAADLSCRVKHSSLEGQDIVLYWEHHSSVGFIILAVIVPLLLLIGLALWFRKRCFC
Method: (§1) In total, three selection rounds were performed and after both the second and third round, phage antibodies were tested for specific binding on a variety of cell-types, i.e., cultured DCs, PBLs, tonsil and synovial fluid cell suspensions, several cell lines including K562, U266, IM9, U937, THP, CEM, Fravel, HL60, Raji, RPMI8226, HepgII, HELA, HT29 and Jurkatt, a C1R cell line transfected with the molecule CD1a, and A431 cell lines transfected with the molecules CD80, CD83, and CD86. For staining of cells, 100 μl of the phage antibodies were blocked by adding 50 μl of PBS containing 4% milk powder for 15 minutes at room temperature. Next, 5×10⁵ cells in 50 μl of PBS containing 1% BSA were added to the blocked phage antibodies and the mixture obtained was incubated on ice for one hour. After that, the obtained mixture was washed three times with 200 μl PBS containing 1% BSA. To detect cell-bound phage antibodies, the cells were incubated with 20 μl of a 1:800 dilution of sheep anti-M13 polyclonal antibody for 20 minutes on ice. Thereafter, the cells were washed with PBS containing 1% BSA and incubated with 20 μl of a 1:700 dilution of PE-conjugated donkey anti-sheep polyclonal antibody for 20 minutes on ice.
(§2) To visualize DCs the cells were washed again with PBS containing 1% BSA, stained with 10 μl 1:10 diluted FITC-conjugated anti-CD1a antibody (BD PharMingen) and suspended in 200 μl of PBS containing 1% BSA. Flow cytometric analyses were performed using a FACScan (Becton Dickinson).
(§3) The twenty scFv phage antibodies derived from the selections described above bound exclusively to the cell line transfected with CD1a (see lower right panel of FIG. 2 for binding of the representative scFv phage antibody called SC02-113 to the CD1a-transfected cell line). The C1R cells transfected with vector containing a CD1a insert were clearly positive, whereas the C1R cell line transfected with vector without CD1a insert (mock-transfected) was negative after staining with the phage antibodies (see lower left panel of FIG. 2 for binding of the representative scFv phage antibody called SC02-113 to the mock-transfected cell line). The A431 cell lines transfected with CD80, CD83 and CD86 were negative after staining with the phage antibodies (data not shown).

Row | Binder | binding result
1 | B1 | binds
2 | B2 | binds
3 | B3 | binds
4 | B4 | binds

These binders were tested against T2, CD80 (UniProt P33681 35-288, limits assumed) (assay: flow cytometry, phage antibody on transfected A431 cells).
T2 construct: whole, on cells; also called A431 cell line transfected with CD80
T2 sequence (looked up): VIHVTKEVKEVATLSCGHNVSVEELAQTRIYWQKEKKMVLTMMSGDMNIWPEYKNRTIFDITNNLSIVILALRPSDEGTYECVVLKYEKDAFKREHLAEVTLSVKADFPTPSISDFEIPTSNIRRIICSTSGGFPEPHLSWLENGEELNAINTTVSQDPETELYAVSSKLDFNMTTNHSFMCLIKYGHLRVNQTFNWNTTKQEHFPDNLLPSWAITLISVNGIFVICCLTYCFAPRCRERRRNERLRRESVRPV
Method: as §1, §2, §3

Row | Binder | binding result
5 | B1 | no binding
6 | B5 | no binding
7 | B2 | no binding
8 | B3 | no binding
9 | B4 | no binding

Each binder was assayed against T3, CD83 (UniProt Q01151 20-205, limits assumed) in the same assay as above.
T3 construct: whole, on cells; also called A431 cell line transfected with CD83
T3 sequence (looked up): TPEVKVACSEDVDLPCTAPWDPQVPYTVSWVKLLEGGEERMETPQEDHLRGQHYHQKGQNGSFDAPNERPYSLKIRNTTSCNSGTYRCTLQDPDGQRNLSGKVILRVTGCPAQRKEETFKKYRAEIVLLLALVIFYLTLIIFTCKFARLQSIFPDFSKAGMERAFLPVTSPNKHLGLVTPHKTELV
Method: as §1, §2, §3

Row | Binder | binding result
10 | B1 | no binding
11 | B5 | no binding
12 | B2 | no binding
13 | B3 | no binding
14 | B4 | no binding

What follows are binders tested against T4, CD86 (UniProt P42081 24-329, limits assumed) in the same assay as above.
T4 construct: whole, on cells; also called A431 cell line transfected with CD86
T4 sequence (looked up): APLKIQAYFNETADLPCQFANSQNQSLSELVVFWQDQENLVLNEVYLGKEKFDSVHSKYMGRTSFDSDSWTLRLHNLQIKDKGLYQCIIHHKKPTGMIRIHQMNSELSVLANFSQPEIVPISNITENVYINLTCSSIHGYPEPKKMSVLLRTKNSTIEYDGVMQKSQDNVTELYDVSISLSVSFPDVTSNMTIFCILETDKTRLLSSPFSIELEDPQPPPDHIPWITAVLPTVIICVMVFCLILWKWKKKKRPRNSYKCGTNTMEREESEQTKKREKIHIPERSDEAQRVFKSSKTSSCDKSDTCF
Method: as §1, §2, §3

Row | Binder | binding result
15 | B1 | no binding
16 | B5 | no binding
17 | B2 | no binding
18 | B3 | no binding
19 | B4 | no binding
